{"source": "paper PMC4336329", "about": "(PLoS ONE, 2015)", "note": "About 2,200 (0.71%) of roughly 310,000 compounds showed an effect of 50% or more. Effects have a minus sign here. Some of the results follow."}
{"target": "human ether-à-go-go-related gene (hERG) potassium channel (human, UniProt Q12809)", "sequence (Q12809 whole entry, looked up)": "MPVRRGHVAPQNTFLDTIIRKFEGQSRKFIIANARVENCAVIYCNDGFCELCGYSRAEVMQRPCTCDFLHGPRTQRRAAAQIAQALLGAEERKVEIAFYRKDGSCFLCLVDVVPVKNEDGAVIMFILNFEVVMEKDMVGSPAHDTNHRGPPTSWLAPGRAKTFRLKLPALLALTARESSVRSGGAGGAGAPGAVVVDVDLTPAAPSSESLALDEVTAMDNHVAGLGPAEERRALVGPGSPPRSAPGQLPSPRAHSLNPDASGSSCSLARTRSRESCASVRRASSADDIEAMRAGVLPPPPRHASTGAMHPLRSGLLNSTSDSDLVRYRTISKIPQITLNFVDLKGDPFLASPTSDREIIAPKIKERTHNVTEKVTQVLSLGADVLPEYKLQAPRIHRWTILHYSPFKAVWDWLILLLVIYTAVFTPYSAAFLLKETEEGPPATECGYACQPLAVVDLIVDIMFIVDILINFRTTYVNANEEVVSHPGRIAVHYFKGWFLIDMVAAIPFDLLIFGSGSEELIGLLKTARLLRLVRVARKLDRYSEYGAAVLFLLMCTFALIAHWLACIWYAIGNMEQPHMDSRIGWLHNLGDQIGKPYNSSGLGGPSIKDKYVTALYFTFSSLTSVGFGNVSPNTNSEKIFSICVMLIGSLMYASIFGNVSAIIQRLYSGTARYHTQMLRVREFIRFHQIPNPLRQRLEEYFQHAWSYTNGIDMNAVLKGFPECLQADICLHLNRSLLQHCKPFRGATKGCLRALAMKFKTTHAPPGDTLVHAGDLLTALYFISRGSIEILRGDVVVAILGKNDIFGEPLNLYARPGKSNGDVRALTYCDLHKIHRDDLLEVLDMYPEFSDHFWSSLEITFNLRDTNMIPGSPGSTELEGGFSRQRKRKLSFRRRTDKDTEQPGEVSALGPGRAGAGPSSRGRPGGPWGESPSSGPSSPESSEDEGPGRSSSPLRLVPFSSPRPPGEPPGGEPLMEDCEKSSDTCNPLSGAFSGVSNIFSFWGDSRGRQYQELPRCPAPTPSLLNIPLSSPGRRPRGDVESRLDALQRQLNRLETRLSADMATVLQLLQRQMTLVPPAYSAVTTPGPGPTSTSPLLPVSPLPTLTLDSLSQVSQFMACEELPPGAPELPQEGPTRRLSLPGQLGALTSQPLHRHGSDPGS", "assay": "primary screen, population patch clamp on CHO cells stably expressing hERG", "units": {"hERG current change (%, negative = inhibition) at 1uM": "%"}}
{"smiles": "CCCN1CCN(C(=O)c2cc(COc3ccc4ncccc4c3)on2)CC1", "hERG current change (%, negative = inhibition) at 1uM": 7.75}
{"smiles": "CS(=O)(=O)NCCNc1ncc(C(F)(F)F)cc1Cl", "hERG current change (%, negative = inhibition) at 1uM": 24.8}
{"smiles": "O=S(=O)(/N=C(/Nc1cc(N2CCOCC2)ncn1)c1ccccc1)c1ccccc1", "hERG current change (%, negative = inhibition) at 1uM": -6.74}
{"smiles": "Cc1cccc(N(CC(=O)NCc2ccco2)C(=O)CCC(=O)Nc2ccccn2)c1C", "hERG current change (%, negative = inhibition) at 1uM": 5.36}
{"smiles": "Cc1nnc(SCc2ccc(F)cc2)n1NC/C=C/c1ccccc1", "hERG current change (%, negative = inhibition) at 1uM": -0.0029}
{"smiles": "COc1ccc(-c2cc(C(F)(F)F)n3nc(C(=O)N4CCC5(CC4)OCCO5)cc3n2)cc1OC", "hERG current change (%, negative = inhibition) at 1uM": -3.01}
{"smiles": "CC(C)=C(NC(=O)c1ccccc1)C(=O)Nc1cccc(C)c1", "hERG current change (%, negative = inhibition) at 1uM": 9.53}
{"smiles": "Cc1cccc(NC(=O)c2ccc(C3SCC(=O)N3CCc3ccccc3)cc2)c1", "note": "(stereo not shown)", "hERG current change (%, negative = inhibition) at 1uM": 10.1}
{"smiles": "O=C(Nc1nccs1)c1ccc(Br)c(S(=O)(=O)N2CCCC2)c1", "hERG current change (%, negative = inhibition) at 1uM": 11.3}
{"smiles": "O=C(CNC(=O)c1ccccc1F)NCCCN1CCCC1=O", "hERG current change (%, negative = inhibition) at 1uM": 3.21}
{"smiles": "Cc1onc(-c2ccccc2)c1-c1csc(N/N=C/c2ccccc2)n1", "hERG current change (%, negative = inhibition) at 1uM": 10.3}
{"smiles": "Nc1nccc(/C=C/c2ccc(Cl)cc2)n1", "hERG current change (%, negative = inhibition) at 1uM": 11.7}
{"smiles": "CCc1c(C)nc2c(OC)cccc2c1SCCC(=O)O", "hERG current change (%, negative = inhibition) at 1uM": 4.9}
{"smiles": "Cc1cc2nc(/C=C/c3cccnc3)[nH]c2cc1C", "hERG current change (%, negative = inhibition) at 1uM": 11.8}
{"smiles": "Cc1c(C(=O)O)sc2nc3n(c(=O)c12)CCCCC3", "hERG current change (%, negative = inhibition) at 1uM": 10.8}
{"smiles": "COc1cccc(C(=O)O[C@@H]2[C@H](Cc3ccccc3)NS(=O)(=O)[C@H]3C[C@@H]4C=C[C@]23O4)c1", "hERG current change (%, negative = inhibition) at 1uM": 10.9}
{"smiles": "CCNc1nc(SCC(=O)Nc2ccc(Cl)c(Cl)c2)nc(N(C)C)n1", "hERG current change (%, negative = inhibition) at 1uM": 14}
{"smiles": "CC(=O)Nc1ccc(S(=O)(=O)N2CCN(C(=O)c3cccnc3)CC2)cc1", "hERG current change (%, negative = inhibition) at 1uM": 8.74}
{"smiles": "CCN1CCN(c2ccc(N=Cc3ccccc3O)cc2)CC1", "hERG current change (%, negative = inhibition) at 1uM": 10.1}
{"smiles": "COC(=O)Cn1c(CN(C)Cc2ccccc2)nc2c1c(=O)n(C)c(=O)n2C", "hERG current change (%, negative = inhibition) at 1uM": 13.9}
{"smiles": "N#C/C(=C\\c1ccccc1[N+](=O)[O-])C(=O)NCc1ccccc1", "hERG current change (%, negative = inhibition) at 1uM": 7.52}
{"smiles": "Cc1cccc(C(=O)N2CCN(c3ccc(N4CCOCC4)nn3)CC2)c1", "hERG current change (%, negative = inhibition) at 1uM": 9.05}
{"smiles": "CC(C)CN1CN(Cc2ccccc2)CNC1=S", "hERG current change (%, negative = inhibition) at 1uM": 13.1}
{"smiles": "CCN(CC(=O)Nc1c(F)cccc1F)C(=O)c1ccc(Cl)c(S(=O)(=O)N2CCCC2)c1", "hERG current change (%, negative = inhibition) at 1uM": 11.2}
{"smiles": "COC1CCN(C(=O)c2cc(COc3ccc(-n4cncn4)cc3)on2)CC1", "hERG current change (%, negative = inhibition) at 1uM": 5.81}
{"smiles": "Cc1ccc(S(=O)(=O)N2Cc3ccccc3CC2C(=O)NC(C)(C)C)cc1", "note": "(stereo not shown)", "hERG current change (%, negative = inhibition) at 1uM": -0.102}
{"smiles": "Clc1cccc(N/N=C(\\Cc2nc3ccccc3[nH]2)c2ccccc2)c1", "hERG current change (%, negative = inhibition) at 1uM": 3.08}
{"smiles": "O=C(CC12CC3CC(CC(C3)C1)C2)NC(=S)N1CCCCC1", "hERG current change (%, negative = inhibition) at 1uM": 13.1}
{"smiles": "COc1ccc(C2N(c3cc(Cl)ccc3OC)C(=O)C3CCCN32)cc1", "note": "(stereo not shown)", "hERG current change (%, negative = inhibition) at 1uM": 9.98}
{"smiles": "Cc1ccc(S(=O)(=O)NC(C)(C)CN2CCNCC2)cc1", "hERG current change (%, negative = inhibition) at 1uM": 12.5}
{"smiles": "Cc1cc(C)c(S(=O)(=O)c2ccccc2C)c(Oc2ccccc2)n1", "hERG current change (%, negative = inhibition) at 1uM": 0.0263}
{"smiles": "COc1ccc(S(=O)(=O)NCCc2nnc3ccc(SCC(=O)Nc4cc(C)on4)nn23)cc1", "hERG current change (%, negative = inhibition) at 1uM": 6.09}
{"smiles": "CC(C(=O)N1CCCCC1)N(C)CC(=O)Nc1cccc(F)c1.O=C(O)C(=O)O", "note": "(stereo not shown)", "hERG current change (%, negative = inhibition) at 1uM": 9.77}
{"smiles": "Cc1ccc(OCC(=O)N/N=C/C=C/c2ccco2)cc1", "hERG current change (%, negative = inhibition) at 1uM": -2.69}
{"smiles": "COc1ccc(CNCCNC(=O)c2cccs2)c(OC)c1OC", "hERG current change (%, negative = inhibition) at 1uM": 17.2}
{"smiles": "COc1ccc(CN2C(=O)c3ccccc3C2C(=O)NC2CCC(C)CC2)c(OC)c1", "note": "(stereo not shown)", "hERG current change (%, negative = inhibition) at 1uM": 6.09}
{"smiles": "Cc1ccc(C)c(OCc2n[nH]c(=S)o2)c1", "hERG current change (%, negative = inhibition) at 1uM": 10.6}
{"smiles": "CCOc1cc(N2CCOCC2)c(OCC)cc1NC(=O)COC(=O)CCn1c(C)csc1=O", "hERG current change (%, negative = inhibition) at 1uM": -17.7}
{"smiles": "Cc1cc(C)c(C)c(S(=O)(=O)NC(C)C(=O)O)c1C", "note": "(stereo not shown)", "hERG current change (%, negative = inhibition) at 1uM": 13.2}
{"smiles": "Cn1nccc1C(=O)Nc1ccc(OC(=O)c2ccnn2C)cc1", "hERG current change (%, negative = inhibition) at 1uM": 1.26}
{"smiles": "CCCCN1Cc2cc(C(=O)c3cc(F)ccc3O)cnc2NC1=O", "hERG current change (%, negative = inhibition) at 1uM": -1.1}
{"smiles": "CCSc1nnc(NC(=O)c2cccc(S(=O)(=O)N(C)c3ccc(C)cc3)c2)s1", "hERG current change (%, negative = inhibition) at 1uM": 9.08}
{"smiles": "COc1cccc(NC(=O)Cn2nnc(C(=O)Nc3cc(Cl)ccc3OC)c2N)c1", "hERG current change (%, negative = inhibition) at 1uM": 15.5}
{"smiles": "O=c1c2c(-c3cccs3)csc2[nH]c(=S)n1-c1ccccc1", "hERG current change (%, negative = inhibition) at 1uM": 10.5}
{"smiles": "COc1ccc(Cn2c(C)nc3ccc([N+](=O)[O-])cc3c2=O)cc1", "hERG current change (%, negative = inhibition) at 1uM": 5.96}
{"smiles": "CCS(=O)(=O)N1CCC(C(=O)NCCCOC)CC1", "hERG current change (%, negative = inhibition) at 1uM": 14.7}
{"smiles": "O=C(NNC(=O)c1csc(N2CCOCC2)n1)c1ccc(=O)[nH]c1", "hERG current change (%, negative = inhibition) at 1uM": 6.62}
{"smiles": "CCCNC(=O)c1ccc(N2CCC3(CC2)CC(c2ccccc2)=NO3)c(NC(=O)Cc2ccc(F)cc2)c1", "hERG current change (%, negative = inhibition) at 1uM": -7.77}
{"smiles": "Cc1ccc2nc(Cl)c(/C=C/C(=O)c3ccco3)cc2c1", "hERG current change (%, negative = inhibition) at 1uM": 16.4}
{"smiles": "CCN1CCN(CCCNC(=O)CS(=O)(=O)Cc2nc(-c3ccccc3C)oc2C)CC1", "hERG current change (%, negative = inhibition) at 1uM": 7.48}
{"smiles": "COc1ccc(S(=O)(=O)Nc2ccc(C)cn2)cc1", "hERG current change (%, negative = inhibition) at 1uM": 1.38}
{"smiles": "Cc1ccccc1OCCn1c(=O)sc2ccccc21", "hERG current change (%, negative = inhibition) at 1uM": 6.89}
{"smiles": "CC(C)(C)N1CC2([N+](=O)[O-])CN(C(C)(C)C)CC([N+](=O)[O-])(C1)C2", "hERG current change (%, negative = inhibition) at 1uM": 8.81}
{"smiles": "CCCCn1c(SCC(=O)N2c3ccccc3Sc3ccccc32)nc2c1c(=O)n(C)c(=O)n2C", "hERG current change (%, negative = inhibition) at 1uM": 3.06}
{"smiles": "O=C(Nc1ccc(Cl)cc1)c1cc(S(=O)(=O)Nc2ccccn2)ccc1Cl", "hERG current change (%, negative = inhibition) at 1uM": -1.06}
